Data reported in PMC12136788.
The list shows a part of the results.

T1: UNK ZnF1-3 (human, UniProt Q9C0B0 31-174)
T1 sequence: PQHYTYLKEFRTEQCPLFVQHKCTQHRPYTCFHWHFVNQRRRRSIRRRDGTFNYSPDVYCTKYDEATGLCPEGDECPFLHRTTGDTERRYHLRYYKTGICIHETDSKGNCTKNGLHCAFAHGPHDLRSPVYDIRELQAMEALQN

B1: 72060935_72062879_1136_CDS_ENSMUSG00000021076_ENSMUST00000021479|mouse|control|control (ssRNA)
RNA: GGGAGUUCUACAGUCCGACGAUCGUCUUGCAAUGCUCCAAAAACAGCCCCUCCCAACCAGGCCACACAAUUAGCUUUUGCAGGUGGAGUAUGAAUUCGGAAGUUCUUGGUGCCAAGUGUCUUUUUGUACUUUGGCUUUUCUACCAACAGAGGAUUGAGCAUCA
B2: 201284089_201284209_525_CDS_ENSG00000196141_ENST00000360760|human|control|control (ssRNA)
RNA: GGGAGUUCUACAGUCCGACGAUCACGAAGUGCCUUUGAAGGUUCCUCAAGUAUCGAGAUCUUUUUCUCACGAGGGAUAAGGGCUGGUUUUUCGUUAGCAGAAUCUGUGGACGAGCUGUCCUUCUCGCAGCCAUUCAUGGGGCCCAACAGAGGAUUGAGCAUCA
B3: chr14:90870812:90870813:+_ENSG00000198668_ENST00000553542|hu_mus|motif|central (ssRNA)
RNA: GGGAGUUCUACAGUCCGACGAUCAUCAAUAUCUGCUUCUCUGAUCAUUUCAUCUACUUCUUCAUCUGUUAGCUUUUCUCCGGAGUUUGUCAUGACGUGGCGCAGUUCUGCCGCACUGAUGUAACCAUUCCCAUCCUUGUCAAACAACAGAGGAUUGAGCAUCA
B4: chr3:57561382:57561383:-_ENSG00000168374_ENST00000303436|hu_hu|motif|central (ssRNA)
RNA: GGGAGUUCUACAGUCCGACGAUCUAGCAGCACUGCAUCUCUCAAUUCAUCUACCAGAAGCAUUUUCUGCAGCUCAUCUGCGGCUUCCUGAAUUCUUUCACGAUCGUUGCUAUCUACCACAAAAAUAAGACCCUGGGUAUUCUGCAACAGAGGAUUGAGCAUCA
B5: 106385328_106385530_742_CDS_ENSMUSG00000041506_ENSMUST00000047721|mouse|control|control (ssRNA)
RNA: GGGAGUUCUACAGUCCGACGAUCCCGGUGUCCCGUGAAGGUGUACAGGUGCUGGCAGCUCUGGGCCUCCCAAAUGAGAAUGAGCUUGCUGCGGUCGCCAGAGGCGAGGUACUUGCCAUCAGAGGAGAUGGCCAUGCAGAGGACCAACAGAGGAUUGAGCAUCA
B6: chr6:134305517:134305518:+_ENSG00000028839_ENST00000367871|hu_hu|FALSE|FALSE (ssRNA)
RNA: GGGAGUUCUACAGUCCGACGAUCGUUACACACUGCCAGAACGUUAACAACCUUAAAAUCUGUAAAUAUUACCUGAAAACCUAGUUUCUGCAGACUACGGGCUAAGCGUCUGGCACCAAAUUUAGCUUCUUCUUCACUUGUUGCCAACAGAGGAUUGAGCAUCA
B7: chr11:87793471:87793472:-_ENSMUSG00000020483_ENSMUST00000020775|mus_mus|mus_mus_mus_hu_False|58_58 (ssRNA)
RNA: GGGAGUUCUACAGUCCGACGAUCUGGACUUGAAAAUAAAAGAAUAAGCUGGAUCCCCCACCCCCCCACAUUGUCAACCCUAUGCGAGAGUUUUGAAGGCGACUCAUGAAAAUCAGCAGCUCAAACGGCAAUGACCACCCCACCCAACAGAGGAUUGAGCAUCA
B8: chr16:2814425:2814426:+_ENSG00000167978_ENST00000301740|hu_mus|FALSE|FALSE (ssRNA)
RNA: GGGAGUUCUACAGUCCGACGAUCAGAUAGUUCUUUAUGCUCUGGAGAAACUUGUGGCCCACUCCAACAUGAAGCCACUGCAGGGGUUUCUGCUGCUUUUGAAGGCUGUGACUGGCUUUGGUCAAGAGCAGACAAUACAGCAGGCAACAGAGGAUUGAGCAUCA
B9: chr6:108204272:108204273:-_ENSG00000025796_ENST00000369002|hu_mus|motif|central (ssRNA)
RNA: GGGAGUUCUACAGUCCGACGAUCUUGCUCUCUAUCAGACUCCCUGUCACUACCAUCUUCUUUCUCACUCUGAGAAUCUCGGUUGGUUUCUUCCUCUUCAGAAUCACUGCCCUUGUCAGAAAUGUCGUCUUCUUCCUCCUUUAUCAACAGAGGAUUGAGCAUCA
B10: 109701261_109701381_6649_CDS_ENSG00000148143_ENST00000277225|human|control|control (ssRNA)
RNA: GGGAGUUCUACAGUCCGACGAUCGUCUUCCACUUCUUCAGCCGGGGUAGCUUUUUGGGAGGAGUGGUGGGAGUGUGAGGAGAGGAGACUGACGAUCCGUGGCCUGGGGAGGGUCAGGGCUUUUCCGUGGACCUUGAGGGAGUGCAACAGAGGAUUGAGCAUCA
B11: 69843214_69843334_2800_3pUTR_ENSMUSG00000053477_ENSMUST00000078486|mouse|control|control (ssRNA)
RNA: GGGAGUUCUACAGUCCGACGAUCCUAAGGAAUGGCUAAUGUCAUCACUUCGUUGCCAUCAGGACGUUUGCUGGUUUUGUUACGAGGGCAGCCGGGCUUCCCCUAUUCAAUAUCCGGUAAUUAGAAACACUAGCUGACGUGAAUCAACAGAGGAUUGAGCAUCA
B12: 118948765_118948885_485_3pUTR_ENSG00000121578_ENST00000480814|human|control|control (ssRNA)
RNA: GGGAGUUCUACAGUCCGACGAUCUUCCCUUCCCCAAAAUGAGGGUCUUAUGGAAAUUAGCCAUGAACUCCUUUGCUUUAGGAAUCUCUUGAAUGGCACCCACGAAGUAGUUACUGGUGGCCCACCCAACCACUGUCAGGCACACAACAGAGGAUUGAGCAUCA
B13: chr10:71917581:71917582:-_ENSG00000079332_ENST00000373241|hu_mus|FALSE|FALSE (ssRNA)
RNA: GGGAGUUCUACAGUCCGACGAUCCUCAACUUUGGAUUCCAUGAGACGAGAAUGAUCCGCACAGUCCACCAGAAAAACUAUGCCAUUAAUCGCUGGGAGAUAAUUUUUCCAAACGCGACGUGCUUGCUCAUGCCCACCGAGAUCCAACAGAGGAUUGAGCAUCA
B14: chr12:39756943:39756944:-_ENSG00000139116_ENST00000544797|hu_mus|hu_hu_hu_mus_False|88_98 (ssRNA)
RNA: GGGAGUUCUACAGUCCGACGAUCGGUUUGGCUGUUACCCCCGAGGGAAUCCUGUAGGAGUCUUGUCAGCUUAGAGUCUCUGUAAGGGACAUGGGUGGCUCUCUUGCUCUUGUCCCCCAAGGCGCUGAUUACAUUCCCAAGAGCCAACAGAGGAUUGAGCAUCA
B15: chr7:54823571:54823572:-_ENSG00000132432_ENST00000352861|hu_mus|hu_hu_hu_mus_False|8_48 (ssRNA)
RNA: GGGAGUUCUACAGUCCGACGAUCUCCCAUGAUAGCAAAUCCUAUAGCUGUAGCCAUGGCAAUCUUCUGGAAUUCUUUUCUGUCGGGUUUAGUGCAUCUUUUAACCAGCCGAAUUGAGUCCUUUACAAACUGCCGACUGGGCUCCAACAGAGGAUUGAGCAUCA
B16: chr2:48034705:48034706:-_ENSG00000138081_ENST00000403359|hu_hu|motif|central (ssRNA)
RNA: GGGAGUUCUACAGUCCGACGAUCCAUAGAAAGAACGUACAUACUGGGACAUGAGUACAGUUACAGCAAGUCUAGGUGUGCGGACAAAACAGGGCACAUUCAAGUACAGUAAGAUUUUGCUUGAAAUUAAAAACAAACUACAUGCAACAGAGGAUUGAGCAUCA
B17: chr12:39763582:39763583:-_ENSG00000139116_ENST00000544797|hu_mus|hu_hu_hu_mus_False|68_78 (ssRNA)
RNA: GGGAGUUCUACAGUCCGACGAUCCUCUAGGAACUGGGCAUUCACUUUGAAUUCAGGAGCAGGAAGCCCAUUUUUAAUCGCUGAGGUCUUUUUCUCAUCAAUACUCUUGAACAGGUGUCUAACAGCACGAGAGAUGAUGCCCUGCAACAGAGGAUUGAGCAUCA
B18: chr14:53325200:53325201:-_ENSG00000073712_ENST00000341590|hu_mus|FALSE|FALSE (ssRNA)
RNA: GGGAGUUCUACAGUCCGACGAUCAUUUUGGUCUUUCGCACGAGUUGAGAGAAAUAUGUAACCACCAAUGAAUUCGUGGACCACCUUGCAGUCUACUUCGGUACAGAUGAAGGACAACCGGACCUCAUCUGCAAACUCUACAGUCAACAGAGGAUUGAGCAUCA
B19: chr5:145543945:145543946:-_ENSG00000133706_ENST00000545646|hu_hu|hu_hu_hu_mus_True|1_18 (ssRNA)
RNA: GGGAGUUCUACAGUCCGACGAUCCUGAACGGCCAGUGGUGGGAAAUAAUCAAGCCAGUGCUCUGCUUCAGAAAACUUCACUAUGUCGUCAUCAGAGAGCCCAAGGGAUUUCAUAAUGCCCCACUGGUACUUAGAAGAUCCAGCCAACAGAGGAUUGAGCAUCA
B20: chr6:148129406:148129407:-_ENSMUSG00000030304_ENSMUST00000136008|mus_hu|FALSE|FALSE (ssRNA)
RNA: GGGAGUUCUACAGUCCGACGAUCAAUCUGAUAUAUCUUGUGGUGCUUACAAUUUGCCUUACACUUUCAUUUAAAGUUACCCUGUUCUCCACUCACCACAUGUAUAAAAUAUCCUAUUUUUUCUCUUAAUGUUUUACAAACCGGCAACAGAGGAUUGAGCAUCA
B21: chr5:131913501:131913502:-_ENSMUSG00000029673_ENSMUST00000160071|mus_hu|FALSE|FALSE (ssRNA)
RNA: GGGAGUUCUACAGUCCGACGAUCACCACUACAGUUCCAGUGUACAUAUUCCUUGCAUUUUUUUUAGUUGUUGUCUUAAAAAAAAAAAAAAACACCGCACAACAUCUGGAGUUCACAAAAUCUGAAGCUCACAACUAAACCUUCCAACAGAGGAUUGAGCAUCA
B22: chr1:23395093:23395094:+_ENSG00000004487_ENST00000356634|perfect_dup|FALSE|FALSE (ssRNA)
RNA: GGGAGUUCUACAGUCCGACGAUCUGCCUGGCCAAGGGACACAGGCUUAUUAUUGAGGACAUUGAAGUCUAGUUGAUGACUAAGGUAAGAUGUAGCUUCUAGCAACCGGUUAAACUCUUGCUCUACCAUUUCAUCUUUCUCUUUCAACAGAGGAUUGAGCAUCA

What follows are binders tested against T1, UNK ZnF1-3 (assay: nsRBNS (natural sequence RNA bind-n-seq); RBNS binding buffer (assumed for nsRBNS): 25 mM Tris pH 7.5, 150 mM KCl, 3 mM MgCl2, 0.01% Triton X-100, 500 ug/ml BSA, 20 U/ml SUPERase-In, 4 C; UNK is unkempt and MSI1 is Musashi-1; names of the RNAs are library labels; protein concentration not given here; high values mean tight binding).
In the case of B1, the binding signal is reported as 0.826 enrichment R. B2 gave a binding signal of 0.45 enrichment R. With B3 the binding signal was 0.572 enrichment R. With B4 the binding signal was 1.21 enrichment R. Binder B5 has a binding signal of 1.4 enrichment R. B6 was tested, and the binding signal was 0.788 enrichment R. B7 gave a binding signal of 2.05 enrichment R. B8 showed a binding signal of 1.01 enrichment R. Work on B9 yielded a binding signal of 0.409 enrichment R. B10 was tested, and the binding signal was 1.46 enrichment R. Binder B11 has a binding signal of 0.762 enrichment R. Binder B12 has a binding signal of 1.13 enrichment R. Work on B13 yielded a binding signal of 1.21 enrichment R. For B14, the binding signal was 0.796 enrichment R. B15 gave a binding signal of 0.705 enrichment R. B16 was tested, and the binding signal was 1.18 enrichment R. For B17, the binding signal was 1.28 enrichment R. B18 showed a binding signal of 0.733 enrichment R. Binder B19 has a binding signal of 1.25 enrichment R. Work on B20 yielded a binding signal of 0.762 enrichment R. B21 gave a binding signal of 1.29 enrichment R. Binder B22 has a binding signal of 0.691 enrichment R.
